Several values for one entry are separate records, joined by “and”; a condition that tells them apart may be missing. Identical values can stand only once. Out of some 94,000 compounds screened, about 4,000 (4.3%) were called active. Inconclusive results, whose numbers are uncertain, are shown with a selection of clear calls. Calls come from the whole dose curve; as a rule, active = well fitted inhibition curve with a large enough effect; inconclusive = small, poorly fitted or top-dose-only effect; inactive = no such curve, though single readings can be large or run the other way. Potencies beside an inconclusive call are fits to weak or partial responses and may not hold up.
assay: Cytotoxic Profiling in NIH 3T3 Cell Line of Diverse Libraries Using Quantitative High-Throughput Screening; details: NIH 3T3 viability, CellTiter-Glo ATP luminescence, 48-72 h; activity change, negative = cytotoxicity: at 96.7 µM (top of the series) unless noted; series mostly up to 96.7 µM; note: nearly all actives have a fitted effect of over 55% in size
Method in brief: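 NIH 3T3 cells at 400 cells/well received 23 nL of compound by pintool and were incubated 48 or 72 h at 37 °C. Viability was read as ATP-coupled CellTiter-Glo luminescence.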
% is set by controls: 0 for no effect and ±100 for the full control effect; potency is the fitted concentration of half-maximal effect; tags give direction and shape of the fitted curve.

Structure (SMILES) | Potency | outcome | activity change, negative = cytotoxicity
COc1ccccc1C1CCCN1C(=O)c1oc2ccc(C)cc2c1C (stereo not drawn) | inconclusive: 50.1 µM [inhibitor, partial curve, poor fit] |  | 
O=C(NCC1Cn2cccc2CN1Cc1ccccc1)c1ccncc1 (stereo not drawn) | inconclusive: 70.8 µM [inhibitor, partial curve, poor fit] |  | 
Cc1ccc(C(=O)N2CC(c3nnc(C(C)C)o3)C3(CCOCC3)C2)cn1 (stereo not drawn) |  | inactive | 
COCCN1CCCCCC(O)c2cc(C(=O)N3CCc4ccccc43)ccc21 (stereo not drawn) | inconclusive: 35.5 µM [inhibitor, partial curve] |  | 
Cc1nn(-c2ccc(C(C)C)cc2)c(C)c1[C@@H]1C=C[C@@H](NCc2ccc(F)cc2)C1 | active: 7.08 µM |  | 
O=C(Nc1cccc(Cl)c1)C1=NO[C@@H]2CN(c3ccccn3)C[C@H]12 | inconclusive: 56.2 µM [inhibitor, partial curve, poor fit] |  | 
CCN1CCC(N2CCC3(CC2)NCCc2c3[nH]c3ccc(OC)cc23)CC1 | active: 31.6 µM |  | 
O=C(Cc1c[nH]c2ncc(-c3ccc(Oc4ccccc4)cc3)cc12)NCc1cccnc1 | inconclusive: 44.7 µM [inhibitor, partial curve, poor fit] |  | 
Cc1cccc(CC(C)NC(=O)c2ccc3nc(Cc4ccccc4F)oc3c2)n1 (stereo not drawn) |  |  | inactive: -22.9%
O=C(Nc1nccs1)c1ccc2c(c1)OCCN(CCC(F)(F)F)C2 | inconclusive: 89.1 µM [inhibitor, partial curve, poor fit] |  | 
CCCc1noc(-c2cn(C3CCN(C(=O)c4ccc(OCC)cc4)CC3)nn2)n1 | inconclusive: 6.31 µM [inhibitor, partial curve, poor fit] |  | 
CN1[C@@H](CCC(=O)Nc2ccccc2)CNC(=O)[C@@H]2[C@H]1CCN2Cc1cccc(OC(F)(F)F)c1 | inconclusive: 56.2 µM [inhibitor, partial curve, poor fit] |  | 
CN(CCCNC(=O)C1(CCO)CC12CCOCC2)C1CCCCC1 (stereo not drawn) |  |  | inactive: -19.6%
CN(Cc1cc2cc(F)ccc2[nH]1)C(=O)C1CCC(=O)N(C2CCCC2)C1 (stereo not drawn) | inconclusive: 39.8 µM [inhibitor, partial curve, poor fit] |  | 
COc1ccc(N2CC3CCC(C2)N3Cc2cccs2)cc1 | inconclusive: 56.2 µM [inhibitor, partial curve, poor fit] |  | 
CCOC(=O)[C@H]1C[C@]2(CCCCN(CCOC)C2=O)N(C(=O)COc2ccccc2)[C@H]1c1ccco1 |  |  | inactive: -25.3%
O=C(Nc1ccc(F)cc1)N1CCC(O)(c2csc(CN3CCc4ccccc4C3)n2)CC1 | inconclusive: 44.7 µM [inhibitor, partial curve, poor fit] |  | 
Cc1ccc(C2NC(=O)N(CC(=O)Nc3ccc(F)cc3)C3=C2C(=O)OC3)cc1 (stereo not drawn) | inconclusive: 44.7 µM [inhibitor, partial curve, poor fit] |  | 
CCN1C(=O)Cc2cc(C(=O)NC(C)c3ccccc3)ccc21 (stereo not drawn) |  |  | inactive: -1.76%
Cc1noc(C)c1-c1cc2c(c(-c3cccnc3)c1)C(=O)N(C)C2 | inconclusive: 50.1 µM [inhibitor, partial curve, poor fit] |  | 
O=C(C1CC1)N1CCC2(COc3ncccc3[S+](=O)([O-])N2)C1 (stereo not drawn) |  |  | inactive: -5.42%

Structure (SMILES) | Potency | outcome | activity change, negative = cytotoxicity
COc1cccc(-c2cc(C(=O)NCc3ccc(F)cc3)c3cnn(C)c3n2)c1 | inconclusive: 22.4 µM [inhibitor, full curve] |  | 
COc1ccc(-c2nc(C)nc3c2CN(C(=O)Cc2ccccn2)CC3)cc1 |  |  | inactive: -2.42%
COc1ccccc1CNC[C@@H]1C=C(C)[C@H](Cc2nc3c(C)cccc3[nH]2)C[C@H]1C(C)C | active: 25.1 µM |  | 
O=C1NC2(CCN(Cc3ccc(C(F)(F)F)cc3)C2)Oc2ccccc21 (stereo not drawn) | inconclusive: 44.7 µM [inhibitor, partial curve, poor fit] |  | 
O=C(NC1CCOCC1)c1ccc2c(c1)OCCN(c1cccc(OC(F)(F)F)c1)C2 | inconclusive: 50.1 µM [inhibitor, partial curve] |  | 
COc1cccc(C(=O)N2CCC3(CC2)N=C(c2cccc(Br)c2)NO3)c1 | inconclusive: 44.7 µM [inhibitor, partial curve, poor fit] |  | 
CN1CCN(C[C@@H]2CN(C(=O)C3(c4ccccc4)CC3)C[C@@H]2CO)CC1 |  |  | inactive: -3.89%
Cc1ccc([S+](=O)([O-])NC2CCN(C(=O)c3ccc(-c4cccs4)cc3)CC2)cc1 | inconclusive: 10 µM [inhibitor, full curve, poor fit] |  | 
CCCNC(=O)N1CCC(c2nc(CCOCC3CCOCC3)no2)C1 (stereo not drawn) | inconclusive: 50.1 µM [inhibitor, partial curve, poor fit] |  | 
COc1ccc(OC)c(NC(=O)Cn2cccc2-c2nc(-c3ccc(F)cc3)no2)c1 | inconclusive: 17.8 µM [inhibitor, full curve] |  | 
Cc1cn2nc(C(=O)NCc3ccc(Br)cc3)cc2c(N2CCCC2)n1 | inconclusive: 50.1 µM [inhibitor, partial curve, poor fit] |  | 
Cc1ccccc1-c1[nH]nc2ncc(-c3ccccc3F)nc12 | inconclusive: 50.1 µM [inhibitor, partial curve, poor fit] |  | 
COCC(=O)N1CCC2(CCN(Cc3cccc(C)n3)CC2)C(CO)C1 (stereo not drawn) |  |  | inactive: 4.52%
COc1ccc(CCNC(=O)c2ccc3nnc(-c4cccc(C(F)(F)F)c4)n3c2)cc1 | inconclusive: 39.8 µM [inhibitor, partial curve, poor fit] |  | 
CCC1c2nccn2CCCN1C(=O)CCc1c(C)nn(C)c1C (stereo not drawn) |  |  | inactive: 0.163%
Cc1cccc(O[C@H]2COCCN(S(=O)(=O)c3c(C)noc3C)C2)n1 | inconclusive: 89.1 µM [inhibitor, partial curve] |  | 
C=CCOc1c(OC)ccc2c1CN(Cc1ccccc1)C(=O)CCN2CC(O)COc1ccc(OC)cc1 (stereo not drawn) | active: 39.8 µM |  | 
CC1CCCCN1CCN(C)c1nc(-c2ccncc2)nc2c1cnn2C (stereo not drawn) | inconclusive: 8.91 µM [inhibitor, full curve, poor fit] |  | 
COc1cccc(-c2nnnn2[C@H]2CO[C@H]3[C@@H]2OC[C@@H]3NS(=O)(=O)c2ccccc2C#N)c1 |  |  | inactive: -14.8%
Cc1cnc(CN(C)C(=O)CC(c2ccccc2)c2ccc(Cl)cc2)[nH]1 (stereo not drawn) | inconclusive: 50.1 µM [inhibitor, partial curve, poor fit] |  | 
Cc1noc(C)c1CC(=O)N[C@@H]1CN(c2ccccn2)C[C@H]1CN(C)C |  | inactive | 

Structure (SMILES) | Potency | outcome | activity change, negative = cytotoxicity
CN(C)c1cccc(C(=O)NC2CCN(c3cnn(C)c(=O)c3)CC2)c1 |  |  | inactive: -5.88%
C=CCNC(=O)[C@@H]1Cc2c[nH]c3cccc(c23)[C@H](CC(C)C)N1 | inconclusive: 112 µM [inhibitor, partial curve, poor fit] |  | 
CCC(CC)c1nc(COC(=O)C2=CN(Cc3ccc(OC)cc3)S(=O)(=O)N=C2C)no1 | inconclusive: 28.2 µM [inhibitor, full curve] |  | 
Cc1cccc(C)c1-c1cc(C(=O)NCc2ccc(C(F)(F)F)cc2)c2cnn(C)c2n1 | active: 14.1 µM |  | 
CCc1cc(CN2CCCC(C(=O)Nc3ccc(-n4ccnc4C)cc3)C2)on1 (stereo not drawn) | inconclusive: 28.2 µM [inhibitor, partial curve] |  | 
O=C(C1CCCN1[S+](=O)([O-])c1cccc(C(F)(F)F)c1)N1CCC(N2Cc3cccn3C2=O)CC1 (stereo not drawn) | inconclusive: 50.1 µM [inhibitor, partial curve, poor fit] |  | 
CC(C)CCN1CCC(N2CCN(C(=O)c3ccc(F)cc3F)CC2)C1=O (stereo not drawn) |  | inactive | 
Cc1cc(CNC(=O)c2cc(-c3ccc(N4CCOCC4)cc3)cc3c2OCCN3C)no1 | inconclusive: 44.7 µM [inhibitor, partial curve, poor fit] |  | 
Cn1ncc2c(C(=O)NC3CC3)cc(-c3cccnc3)nc21 | active: 39.8 µM and inconclusive: 89.1 µM [inhibitor, partial curve] |  | 
Cc1n[nH]c(C)c1Cc1ccc(C(=O)N2CCC(CCOc3ccc(F)cc3)C2)o1 (stereo not drawn) | active: 35.5 µM |  | 
COc1cccc(CN2CCC(C(=O)Nc3ccccc3-c3cccc(OC)c3)CC2)c1 | inconclusive: 20 µM [inhibitor, full curve, poor fit] |  | 
O=C(NC1CC(=O)N(Cc2ccccc2C(F)(F)F)C1)c1ccsc1 (stereo not drawn) |  |  | inactive: -5.67%
Cc1cc(C)c(S(=O)(=O)N2CC(c3nc(Cc4ccccc4)no3)C2)cc1C | inconclusive: 70.8 µM [inhibitor, single point] |  | 
N#Cc1ccc(C(=O)N2CCOCCNC(=O)[C@@H]3CCC[C@@H]32)cc1 |  |  | inactive: -16%
CN(C(=O)C(C)(C)C)C1CCCc2ccccc21 (stereo not drawn) | inconclusive: 141 µM [inhibitor, partial curve, poor fit] |  | 
O=C(C1CCCN([S+](=O)([O-])c2cccs2)C1)N1CCC(c2nc3ccncc3[nH]2)CC1 (stereo not drawn) |  |  | inactive: -21.8%
O=C(c1ccco1)N1CCC(Oc2ccccc2-c2nc(-c3ccccc3)no2)C1 (stereo not drawn) | inconclusive: 56.2 µM [inhibitor, partial curve, poor fit] |  | 
O=C(NCC1CCCCO1)c1coc(COc2cccc(C(F)(F)F)c2)n1 (stereo not drawn) | inconclusive: 89.1 µM [inhibitor, partial curve, poor fit] |  | 
CN(C)Cc1cccc(-c2cc3c(ccn3Cc3cccnc3)c(C3=CCOCC3)n2)c1 | inconclusive: 22.4 µM [inhibitor, full curve, poor fit] |  | 
O=S(=O)(c1ccccc1)N1CCC(N(Cc2cccnc2)C2CCOCC2)CC1 | inconclusive: 50.1 µM [inhibitor, partial curve, poor fit] |  | 
O=C(Nc1ccc(Cl)nc1)c1c[nH]c2cccnc12 | inconclusive: 63.1 µM [inhibitor, partial curve, poor fit] |  | 

Source: PubChem BioAssay AID1345082 (National Center for Advancing Translational Sciences (NCATS), 2018)
